# Measured values: PMC4336329 (PLoS ONE, 2015)
# Out of some 310,000 compounds screened, about 2,200 (0.71%) showed an effect of 50% or more. The effect is printed as a negative number. This is one part of the list.
# Target: human ether-à-go-go-related gene (hERG) potassium channel (human, UniProt Q12809)
# Test: primary screen, population patch clamp on CHO cells stably expressing hERG
# human ether-à-go-go-related gene (hERG) potassium channel, sequence (Q12809 whole entry, looked up): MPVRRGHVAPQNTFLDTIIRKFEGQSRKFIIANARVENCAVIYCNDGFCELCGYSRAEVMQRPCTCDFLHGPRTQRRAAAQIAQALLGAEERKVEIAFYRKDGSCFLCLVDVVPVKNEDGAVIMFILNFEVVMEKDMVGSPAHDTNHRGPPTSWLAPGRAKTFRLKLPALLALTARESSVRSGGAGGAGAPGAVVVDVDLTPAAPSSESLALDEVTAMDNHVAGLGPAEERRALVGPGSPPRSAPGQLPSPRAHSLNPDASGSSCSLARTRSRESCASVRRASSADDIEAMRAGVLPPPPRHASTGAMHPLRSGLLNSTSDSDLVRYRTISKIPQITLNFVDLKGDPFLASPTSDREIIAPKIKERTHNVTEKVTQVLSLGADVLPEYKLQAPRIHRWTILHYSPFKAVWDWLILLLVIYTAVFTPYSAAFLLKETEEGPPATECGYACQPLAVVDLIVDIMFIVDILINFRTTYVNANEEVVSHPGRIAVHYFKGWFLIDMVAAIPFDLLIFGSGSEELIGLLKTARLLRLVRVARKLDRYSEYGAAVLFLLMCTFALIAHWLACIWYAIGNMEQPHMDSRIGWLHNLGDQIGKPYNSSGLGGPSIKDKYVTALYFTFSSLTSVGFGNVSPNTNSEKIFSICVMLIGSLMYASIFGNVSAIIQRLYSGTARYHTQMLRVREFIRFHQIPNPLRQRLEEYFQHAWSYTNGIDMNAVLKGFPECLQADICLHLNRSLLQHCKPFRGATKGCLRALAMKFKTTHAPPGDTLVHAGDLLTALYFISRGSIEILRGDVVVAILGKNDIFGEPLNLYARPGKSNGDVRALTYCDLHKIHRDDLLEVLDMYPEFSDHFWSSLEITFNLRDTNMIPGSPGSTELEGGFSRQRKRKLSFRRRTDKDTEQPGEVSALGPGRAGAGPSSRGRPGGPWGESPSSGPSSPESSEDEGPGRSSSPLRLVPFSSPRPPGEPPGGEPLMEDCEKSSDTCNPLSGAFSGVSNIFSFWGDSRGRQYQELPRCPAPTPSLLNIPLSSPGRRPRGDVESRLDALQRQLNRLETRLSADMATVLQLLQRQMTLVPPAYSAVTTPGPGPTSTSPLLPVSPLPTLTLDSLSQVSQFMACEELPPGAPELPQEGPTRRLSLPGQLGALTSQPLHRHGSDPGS
row,SMILES,"hERG current change (%, negative = inhibition) at 1uM [%]"
1,CCC1CCCCN1CCCNC(=O)C1CCCN(S(=O)(=O)N2CC(C)CC(C)C2)C1 (centres unmarked),9.94
2,O=C(CSc1nccc(=O)[nH]1)Nc1ccc(F)c(Cl)c1,9.56
3,COc1cc(Nc2c3c(nc4ccccc24)CCCC3)cc(OC)c1OC,-48.3
4,N#Cc1ccc(C(=O)N(Cc2ccccc2)c2ccccc2)cc1,6.37
5,c1cncc(C(c2nnnn2C2CCCCC2)N2CCCCC2)c1 (centres unmarked),5.55
6,Cc1ccc(C(=O)NNC(=O)Cc2ccccc2)cc1,3.37
7,CC(C)[C@H](NC(=O)OCc1ccccc1)C(=O)OCc1ccccc1,9.37
8,CCCCOc1cccc(C(=O)NC(=S)Nc2cccnc2)c1,8.87
9,COc1cc2oc3ccc(C#Cc4ccc(N)cc4)cc3c(=O)c2cc1OC,11.4
10,CCOC(=O)Cc1cnc(NC(=O)CSc2nc3ncnc(N)c3[nH]2)s1,7.19
11,Cc1cc(C)c(S(=O)(=O)N(C)CC(=O)NCCN2CCOCC2)c(C)c1,-5.19
12,Cc1c(C(=O)N2CCN(c3ccc(F)cc3)CC2)sc2ncnc(N3CCN(c4ccccn4)CC3)c12,12.1
13,CCOC(=O)N(C)c1ccc(C(O)(C(=O)OCC)C(F)(F)F)cc1 (centres unmarked),2.99
14,CCc1noc(C)c1C(=O)Oc1ccc(N(C)S(=O)(=O)c2ccc(C)c(C)c2)cc1,14.7
15,O=C(Nc1ccc(O)cc1)C1CC=CCC1 (centres unmarked),-2.83
16,COCC(=O)Nc1cc(C)cn(Cc2ccc(F)cc2)c1=O,-3.54
17,O=C1N/C(=N\N=C\c2ccc3ncccc3c2)SC1Cc1ccc(SC(F)F)cc1 (centres unmarked),13.7
18,Cc1cccc(NC(=O)c2cnn(-c3ccc(F)cc3)c2C2CCNCC2)c1C.Cl,9.34
19,Cc1c(Cl)c(-c2n[nH]c(=S)n2CC(C)C)nn1C,8.72

row,SMILES,"hERG current change (%, negative = inhibition) at 1uM [%]"
1,CCOc1cc(C(=O)Oc2cc(C)[nH]c(=O)c2[N+](=O)[O-])cc(OCC)c1OCC,15.3
2,NC(=O)CSc1nnc(-c2cc3ccccc3o2)n1Cc1ccccc1,8.82
3,Cc1nc2c(-c3ccccc3)cnn2c(N2CCOCC2)c1C,9.27
4,COC(=O)Cn1cc(/C=C/c2cc[n+](C)cc2)c2ccccc21.[I-],9.15
5,CCCCCC(=O)Nc1nc(C)c(-c2csc(Nc3cc(Cl)ccc3C)n2)s1,25.3
6,Cc1ccccc1-c1nc2sc3c(c2c(=O)n1N)CCCC3,2.25
7,Cc1cccc(NC(=O)CCS(=O)(=O)c2ccc(Cl)cc2)c1,5.06
8,CN1CCC(N(C)CC(C)(C)NS(=O)(=O)c2ccccc2)CC1.Cl,0.229
9,O=C(C[n+]1ccc(/C=N/O)cc1)NC1CCCCC1.[Cl-],9.12
10,O=C(/C=C/c1cccc([N+](=O)[O-])c1)OCC1CCCO1 (centres unmarked),13.3
11,Cc1ccc(-c2noc(C3CCN(S(C)(=O)=O)CC3)n2)o1,-10
12,C/C(=N\NC(=O)c1nn(C)c(C)c1Br)c1ccc(NC(=O)c2ccoc2C)cc1,10.1
13,CCO/C=N/Nc1nc(C(F)(F)F)nc2c1cnn2Cc1ccccc1,12.7
14,CC(C)(C)c1cc(/C=N/NC(=O)C[n+]2ccccc2)cc(C(C)(C)C)c1O.[Cl-],23.4
15,Cn1c(CC(=O)Nc2ccc(Cl)c(Cl)c2)n[nH]c1=S,8.62
16,Cc1cccc(NC(=O)c2ccc3c(=O)n(CC4CCCO4)c(=S)[nH]c3c2)c1 (centres unmarked),16.4
17,COc1cc(-c2nnc(COc3ccc(Cl)cc3C)o2)cc(OC)c1OC,-1.37
18,COc1ccc(-c2nn(-c3ccccc3)cc2C(=O)N2CCN(S(=O)(=O)c3ccccc3C#N)CC2)cc1,-6.64
19,COc1cccc(N(CC(=O)N2CCCCCC2)S(C)(=O)=O)c1,15.7

row,SMILES,"hERG current change (%, negative = inhibition) at 1uM [%]"
1,COC(=O)c1ccc(CN2C(=O)NC(CC(C)C)C2=O)cc1 (centres unmarked),10.5
2,COc1ccc(C)cc1S(=O)(=O)NCCC1=CCCCC1,-0.114
3,Cc1c(C(=O)Nc2cccnc2Cl)oc2ccccc12,11.6
4,O=C(Nc1ccc(F)cc1F)c1cc2nc3c(c(C(F)(F)F)n2n1)CCCC3,0.979
5,CCCCNC(=O)c1nn2cc(Br)cnc2c1Br,-32.8
6,Cc1ccc(N2CC(C(=O)N3CCC(C(=O)Nc4cccc(Br)c4)CC3)CC2=O)cc1 (centres unmarked),-5.89
7,CCN(c1ccccc1)S(=O)(=O)c1ccc(NC(=O)c2ccco2)cc1,6.73
8,Cc1ccc(NC(=O)C(=O)Nc2ccccn2)cc1,10.2
9,CC[N+](CC)(CC#Cc1ccccc1)CC(=O)c1ccc(Cl)cc1,-3.43
10,CCN1CCCC1CNC(=O)c1ccc2c(c1)N(Cc1cccc(Cl)c1)C(=O)c1ccccc1S2(=O)=O (centres unmarked),-16.1
11,CCOCc1nnc(NC(=O)C2CC(=O)N(C3CCCC3)C2)s1 (centres unmarked),14.2
12,CCCCCc1ccc(-c2cn(Cc3cccc(OC)c3)nn2)cc1,18
13,Cc1cc(C(=O)N/N=C/c2ccc([N+](=O)[O-])s2)n[nH]1,14.8
14,COc1ccc(-c2nn3c(=O)c(C)nnc3s2)cc1,14.5
15,COc1cc2c(cc1NC(=O)c1cccc(S(=O)(=O)N(C)C)c1)oc1ccccc12,10.6
16,CCNC(=S)NS(=O)(=O)c1ccc(CC)cc1,9.16
17,CCCn1c(C)cc(=O)c2cc(NC(=O)c3cnccn3)ccc21,3.94
18,NS(=O)(=O)c1ccc(NC(=O)COC(=O)c2c3c(nc4ccccc24)/C(=C\c2ccc4c(c2)OCO4)CCC3)cc1,7.23
